In PubChem BioAssay AID686978 (National Center for Advancing Translational Sciences (NCATS), 2013):
The campaign covered roughly 420,000 compounds. About 64,000 (15%) were called active. Inconclusive means that the source gave no clear call. Such entries were picked first, then a sample of the others. Calls follow the shape of the dose curve; as a rule, active = well fitted inhibition curve with a large enough effect; inconclusive = small, poorly fitted or top-dose-only effect; inactive = flat fitted curve, though single readings scatter. No potency is given beside an inconclusive call; the fits are too rough.

Assay: qHTS for Inhibitors of human tyrosyl-DNA phosphodiesterase 1 (TDP1): qHTS in cells in absence of CPT; also: nearly all actives have a fitted effect of over 55% in size
Details: DT40 Tdp1-/- hTDP1 cells, no CPT, ATP luminescence, 48 h; activity change, negative = growth inhibition: at 46.2 µM (top of the series) unless noted
Summary of the method: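 Chicken DT40 Tdp1-/- cells stably complemented with human TDP1 were seeded at 400 cells/well with DMSO in place of 20 nM camptothecin. After compound pinning, cells grew at least 48 hr at 37 °C; viability read by CellTiter-Glo luminescence.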
% is scaled to controls: 0 for no effect and ±100 for the full control effect; potency is read from the fitted curve at half-maximal effect; tags tell the direction and shape of the fitted curve.

SMILES | activity change, negative = growth inhibition | Potency
O=C(CSCc1ccccc1Br)NNC(=S)NCc1ccco1 | inactive: 4.32% | –
CCN(CC)S(=O)(=O)c1ccc(NC2c3ncccc3C(=O)N2Cc2ccccc2)cc1 (configuration not stated) | inactive: -23.5% | –
COc1ccc(NS(=O)(=O)c2c(C)cc(C)cc2C)cc1 | – | inconclusive [inhibitor, single point]
CN1/C(=C\C(=O)COC(=O)c2nccnc2N)C(C)(C)c2ccccc21 | – | inconclusive [inhibitor, single point]
Cc1ccc(NC(=O)c2ccc3nsnc3c2)c(Cl)c1 | – | inconclusive [inhibitor, single point]
CCOC(=O)c1nc(NCc2ccccc2)c2ccccc2n1 | – | inconclusive [inhibitor, single point]
CC(=O)c1ccc(NC(=O)CSc2nnc3ccc(-c4ccccn4)nn23)cc1 | inactive: 8.32% | –
COc1cccc(OCC(O)CN2CC(C)CC(C)C2)c1 (configuration not stated) | – | inconclusive [inhibitor, full curve]
CC(=O)c1ccc(N2CCN(c3ccc(C(N)=O)cc3[N+](=O)[O-])CC2)cc1 | – | inconclusive [inhibitor, single point]
CC(C)c1ccccc1NC(=O)COC(=O)c1cc([N+](=O)[O-])ccc1N1CCOCC1 | – | active: 18.4 µM
Cc1[nH]c2ccccc2c1NC(=O)CN1CCN(c2cccc(C(F)(F)F)c2)CC1 | – | inconclusive [inhibitor, single point]
Cc1ccc(C2CCN(C(=O)c3cnn(-c4ccc(C)c(C)c4)c3C3CCN(C(=O)OC(C)(C)C)CC3)C2)cc1 (configuration not stated) | – | active: 13 µM
CCN(CC)S(=O)(=O)c1ccc(C)c(NC(=O)CNCCN(C(C)C)C(C)C)c1 | inconclusive: -30.1% [inhibitor] | –
NC(=S)N/N=C/c1c(O)c(Br)cc2oc3c(c12)CCCC3 | – | active: 5.17 µM
Cc1cc(C)c(OCCOCCn2c(-c3ccc(Cl)cc3)nc3ccccc3c2=O)c(C)c1 | inactive: -12.4% | –
Cc1c(C(=O)NC2CCCCC2)sc2ncnc(NCCN(C)C)c12 | inactive: -1.91% | –
N#Cc1ccccc1S(=O)(=O)N1CCN(Cc2cccs2)CC1 | inactive: -16.3% | –
Cc1ccc(C(=O)N[C@H](C(=O)NC2CCCCCCC2)C(C)C)cc1 | inactive: -3.34% | –
COc1cccc(Nc2nc(C(N)c3ccccc3Cl)cs2)n1 (configuration not stated) | – | active: 14.6 µM
Cc1cccc(C(=O)N/N=C/c2ccc[nH]2)c1 | inconclusive: -31.1% [inhibitor] | –
COc1cc(C(=O)O[C@H]2CC(C)=CC[C@@]3(C)CC[C@@](O)(C(C)C)[C@H]23)ccc1O | – | inconclusive [inhibitor, single point]
C[C@@H]1CN([C@@H](C)CO)S(=O)(=O)c2ccc(Br)cc2O[C@H]1CN(C)Cc1ccccn1 | – | active: 23.1 µM
O=C(O)CCCN1C(=O)C2C3CCC(O3)C2C1=O (configuration not stated) | – | inconclusive [inhibitor, single point]
N#Cc1ccccc1S(=O)(=O)N1CCN(CC(=O)Nc2ccccc2C(=O)NC2CC2)CC1 | inactive: -20.9% | –

SMILES | activity change, negative = growth inhibition | Potency
O=C(C[C@@H]1C[C@H]2c3cc(NC(=O)C4CCC4)ccc3O[C@H]2[C@@H](CO)O1)NCc1ccc(-c2ccccc2)cc1 | – | active: 20.6 µM
Nc1ccccc1SC(CC(=O)c1ccccc1)c1ccccc1 (configuration not stated) | – | active: 13 µM
COc1cccc(NC(=O)CC2Nc3cc(C)c(C)cc3NC2=O)c1 (configuration not stated) | – | inconclusive [inhibitor, single point]
Cc1ccc(C)c(N2CCN(C(=O)CSCc3ccccc3Cl)CC2)c1 | – | inconclusive [inhibitor, single point]
O=C(c1cncs1)N(Cc1cc2cc3c(cc2nc1N1CCOCC1)CCC3)CC1CCCO1 (configuration not stated) | inactive: -12.1% | –
Cc1oc(-c2cccc(Cl)c2)nc1CS(=O)(=O)CC(=O)NC1CCCC1 | inactive: -3.74% | –
CCOC(=O)C1=CNS(=O)(=O)NC1c1ccc(C(F)(F)F)cc1 (configuration not stated) | inactive: -5.29% | –
CCCNC(=O)C1(C)CCCN(C(=O)c2ccccc2OC)C1 (configuration not stated) | inactive: 28.5% | –
CO/N=C(/CS(=O)Cc1ccccc1Cl)c1ccc(Cl)cc1Cl (configuration not stated) | – | inconclusive [inhibitor, partial curve]
O=C(Nc1ccc(F)c(Cl)c1)Nc1nnc([C@@H]2O[C@H](CO)[C@@H](O)[C@H]2O)s1 | inactive: -21% | –
O=C(NCCc1cnn(-c2ccccc2)c1)c1cc(COc2c(F)cccc2F)on1 | – | inconclusive [inhibitor, single point]
CC1C(=O)Nc2ccccc2N1C(=O)c1ccccc1 (configuration not stated) | inactive: 5.09% | –
CN(C)CCCN1c2ccc3ccccc3c2Sc2cccc(Cl)c21 | – | inconclusive [inhibitor, single point]
O=C1CCCN2N=C(SCC(=O)N3N=C(c4ccc(Br)cc4)CC3c3ccc(F)cc3)SC2=N1 (configuration not stated) | – | inconclusive [inhibitor, single point]
O=C(NC1CCCCC1)C(c1cccs1)N(C(=O)c1ccccn1)c1ccccc1 (configuration not stated) | – | inconclusive [inhibitor, single point]
CC(=O)c1ccc(S(=O)(=O)N2CCN(C(=O)CSc3ccc(F)cc3)CC2)cc1 | inactive: -33.4% | –
CCOC(=O)[C@]12CCCC=C1N(Cc1cccc3ccccc13)C(=O)[C@H](CC(=O)N1CCN(C(=O)C3CC3)CC1)C2 | – | active: 20.6 µM
O=C(OCC(=O)N1CCOCC1)c1ccccc1OCc1ccccc1 | inactive: 0.36% | –
Cn1c(=O)c2c(nc(NN=C3CCCC3)n2C)n(C)c1=O | – | inconclusive [inhibitor, single point]
O=C(CC(O)c1ccccc1)Nc1ccccn1 (configuration not stated) | inactive: -8.58% | –
Cc1cccn2c(=O)c3cc(C(=O)NCc4ccco4)c(=N)n(CCOCCO)c3nc12 | – | inconclusive [inhibitor, single point]
CC(=O)N1c2ccccc2Sc2ccc3ccccc3c21 | – | inconclusive [inhibitor, single point]
COc1ccccc1CNC(=O)c1cc(-c2cc(Cl)ccc2C)n[nH]1 | – | inconclusive [inhibitor, single point]
CCc1ccc(S(=O)(=O)Nc2cccc(-c3ccc(N4CCOCC4)nn3)c2)cc1 | – | inconclusive [inhibitor, single point]

SMILES | activity change, negative = growth inhibition | Potency
Cc1ccc(C(=O)/C=C/NNC(=O)c2ccccc2O)cc1 | – | inconclusive [inhibitor, single point]
CC(=O)c1ccccc1C(=O)NCC1Cc2cccc(-c3cccnc3)c2O1 (configuration not stated) | – | inconclusive [inhibitor, single point]
CC(C)(C)c1ccc(C(=O)NCC(c2ccc(Cl)cc2)N2CCOCC2)cc1 (configuration not stated) | – | inconclusive [inhibitor, single point]
CCOc1ccc(NS(=O)(=O)c2ccc3c4c(cccc24)C(=O)N3)cc1 | – | inconclusive [inhibitor, partial curve, poor fit]
Cc1ccc(OCCOCCN2CCCC2)c(Br)c1 | – | inconclusive [inhibitor, single point]
CCN(CC)CCCN=Cc1c(O)n(-c2c(C)cccc2C)c(=O)c2ccccc12 | – | inconclusive [inhibitor, single point]
COc1ccc(CCN(C)C(=O)c2ccc(S(=O)(=O)Nc3ccccc3F)cc2)cc1OC | inactive: -10.2% | –
COc1ccc(NC(=O)N2CCNC(=O)C2CC(=O)Nc2ccc(F)cc2)cc1 (configuration not stated) | inactive: 2.56% | –
COc1ccc(S(=O)(=O)C(C#N)c2nc3ccccc3nc2N2CCCC(C)C2)cc1 (configuration not stated) | inactive: -9.52% | –
OC1CCN(C(=S)Nc2ccc(Oc3ccccc3)cc2)CC1 | – | inconclusive [inhibitor, single point]
Cc1ccc2nc3c(c(N)c2c1)CCN3C | – | inconclusive [inhibitor, single point]
CN(NC(=O)C(=O)NCc1ccco1)C(=O)Nc1ccc(Cl)cc1 | – | inconclusive [inhibitor, single point]
CC(=O)c1cccc(NC(=O)CSc2nc3ccccc3nc2Cc2ccc(F)cc2)c1 | inactive: -29.9% | –
O=C(c1ccccc1)N1CCN(c2cc(Cl)nc3cc(-c4cccc(Cl)c4)nn23)CC1 | – | active: 4.61 µM
C[C@@H]1CN([C@H](C)CO)C(=O)c2cc(NS(=O)(=O)c3ccc(F)cc3)ccc2O[C@@H]1CN(C)Cc1ccc(Cl)c(Cl)c1 | – | inconclusive [inhibitor, single point]
CC(C)CN(CC(C)C)c1ccc(/C=N/n2cnnc2)cc1[N+](=O)[O-] | – | inconclusive [inhibitor, single point]
O=c1cc(N2CCCCC2)c(-c2ccccc2)nn1Cc1cccc(F)c1 | – | inconclusive [inhibitor, single point]
Cc1c(NC(=O)c2cccc(NC(=O)COc3ccc(C#N)cc3)c2)c(=O)n(-c2ccccc2)n1C | inactive: -46.9% | –
CCCCCn1c(CN2CCCCC2CC)nc2c1c(=O)n(C)c(=O)n2C (configuration not stated) | – | inconclusive [inhibitor, single point]
C#CCNC(=O)C[C@@H]1C[C@@]2(C(=O)OC)CCCCC=C2N(CCc2ccc(OC)c(OC)c2)C1=O | – | inconclusive [inhibitor, single point]
Cc1nc2ccc(NS(=O)(=O)c3ccc(C)c(C)c3)cc2s1 | – | active: 10.3 µM
Cc1ccc(CO)cc1Nc1ncnc2onc(-c3ccc(F)cc3)c12 | – | inconclusive [inhibitor, single point]
COc1ccc(C(=O)Nc2cc(C(=O)c3ccccc3)c(C)oc2=O)cc1 | – | active: 10.3 µM
CN1C(=O)[C@H]2[C@@H](c3ccc(C(F)(F)F)cc3)N[C@]3(CCCN(Cc4cccn4C)C3=O)[C@H]2C1=O | – | active: 16.4 µM
